From PubChem BioAssay AID1347073 (National Center for Advancing Translational Sciences (NCATS), 2019)
The campaign covered roughly 45,000 compounds. About 200 (0.44%) were called active. Inconclusive results (about 7%) are left out. Calls come from the whole dose curve; as a rule, active = well fitted activation curve with a large enough effect; inconclusive = small, poorly fitted or top-dose-only effect; inactive = no such curve, though single readings can be large or run the other way. Some of the results follow. Square brackets hold non-standard residues; d marks the D form. Peptide text beside a SMILES is read from it. ξ: configuration not given here. ξM = CSCCC(N)C(=O)O

Assay: qHTS of TDP-43 Inhibitors: NCGC Sytravon Library Screen; note: 0% is about no effect; nearly all actives have a fitted effect of over 55% in size
Conditions: yeast TDP-43 toxicity rescue, BacTiter-Glo growth, 24 h; series mostly up to 46.1 µM; growth rescue (activation): at the top concentration
From the text: The goal of this project is to identify new chemical probes capable of reversing the toxicity associated with TDP-43 which is associated with frontotemporal lobar degeneration and amyotrophic lateral sclerosis. These compounds will provide a complementary approach to deciphering the tangled mechanisms of toxicity and protection that we have uncovered through genome-wide genetic screens and are beginning to uncover in a large-scale proteomics analysis with mass spectroscopy. To this end, a miniaturized assay was developed to be screened against the Molecular Libraries Small Molecule Repository (MLSMR) to discover TDP-43 inhibitors. Please note that in the set-up this yeast-based assay compounds that inhibit as TDP-43, have a read-out as activators. NIH Chemical Genomics Center [NCGC] NIH Molecular Libraries Probe Centers Network [MLPCN] Assay Submitter (PI): Susan Lindquist, Whitehead Institute/MIT MLPCN Grant: R21 NS060957
Dispense 2.5 microL yeast galactose medium per 1536-well plate, pin compound, dispense 2.5 microL TDP-43 expressing yeast in galactose medium at OD600=0.02 (pregrown in raffinose medium to mid-log phase) per well, incubate for 24 hr at 30 deg C, and cell growth will be measured using 5 microL of Bactiter/Glo reagent to entire plate and read using Luminescence Protocol in ViewLux.

SMILES | growth rescue (activation)
Cc1cc(S(=O)(=O)N2CCOCC2)ccc1OCC(=O)NCCCn1ccnc1 | inactive: -2.82%
Cc1ccc(C)c(N2CC(C(=O)OCC(=O)Nc3cc(C)on3)CC2=O)c1 (centres undefined) | inactive: -4.61%
COc1ccc(NC(=O)Cc2coc3ccc4ccccc4c23)cc1S(=O)(=O)N1CCOCC1 | inactive: -6.77%
Cc1ccc(/C=C(\C#N)C(=O)Nc2cccc(Br)c2)o1 | inactive: 26%
Cc1cnc(C(=O)OCc2ccc(Br)cc2)cn1 | inactive: -1.72%
Cc1nc2c(OCCN3C(=O)c4ccccc4C3=O)cccn2c1N(C)C(=O)CCC1CCCC1 | inactive: 7.06%
CN(C)c1ccc(C(=S)N2CCNCC2)cc1 | inactive: 7.15%
COC(=O)CNC(=O)C(CCSC)NC(C)=O (centres undefined) (Ac-[ξM]-Gly-OMe) | inactive: 3.06%
CCN(CC)CCNCc1cc(Br)ccc1OCC(=O)NCc1ccccc1 | inactive: 2.21%
Cc1ccc(NC(=O)CCC(=O)N/N=C/c2cc([N+](=O)[O-])ccc2O)cc1 | inactive: 5.45%
COCCCn1c(-c2ccccc2)nc2ccccc2c1=O | inactive: -4.61%
CCC(CC)NC(=O)c1nn(Cc2ccccc2)c(=O)c2ccccc12 | inactive: 20.6%
Nc1nn(-c2ccccc2)nc1C(=O)OCc1ccccc1 | inactive: -7.75%
N#C/C(=C/C1=C(N2CCOCC2)C(=C/c2ccc(Cl)cc2Cl)/CC1)C(=O)Nc1ccccc1F | inactive: 3.59%
Cc1nc2ccc(S(=O)(=O)NCC(=O)Nc3ccc(F)cc3F)cc2s1 | inactive: 15.2%
CCOc1ccc(C(=O)CCC(=O)NC(C)C(=O)OC)cc1 (centres undefined) | inactive: 8.35%
Cc1c(C(=O)NCCc2ccccc2)oc2ccccc12 | inactive: 23.4%
CCOc1cccc(N(C(=O)c2ccco2)C(C(=O)NC2CCCC2)c2cccnc2)c1 (centres undefined) | inactive: 16.7%
COc1cc(C2C(N3C(=O)c4ccccc4C3=O)C(=O)N2c2ccc(C)c(C)c2)cc(OC)c1OC (centres undefined) | inactive: -4.13%
O=C(CSc1ncccn1)Nc1ccc(Cl)c(S(=O)(=O)N2CCOCC2)c1 | inactive: -3.09%
CC(=O)Nc1cc(-c2nn(C)c(=O)c3ccccc23)ccc1N1CCOCC1 | inactive: 9.61%
N=c1c2c(ncn1CCN1CCOCC1)Oc1cc(O)ccc1C2c1ccccc1 (centres undefined) | inactive: 8.87%
CCOC(=O)c1c(N=CN(C)C)c2cc([N+](=O)[O-])cnc2n1C | inactive: -65.4%
CC(=O)N(c1nnc(-c2cccc(C)c2)s1)C1CCCC1 | inactive: 17.1%
Cc1c(C(=O)N(C)Cc2ccccc2)oc2c(Cl)cccc12 | inactive: 9.77%
CCOC(=O)N1CCN(Cc2ccc(O)c3ncccc23)CC1 | inactive: -28.4%
COc1ccccc1C(=O)NNC(=S)NC(=O)c1ccco1 | inactive: -72%

SMILES | growth rescue (activation)
O=C(CCC(=O)Nc1ccccc1)NNC(=O)c1ccccc1Cl | inactive: 6.9%
CCCCN(C(=O)c1ccc(-n2nc(C)cc2C)cc1)c1c(N)n(CCC)c(=O)[nH]c1=O | inactive: 17.6%
COC(=O)Cc1cc(=O)n2[nH]c(C)c(-c3ccccc3)c2n1 | inactive: 16.9%
COc1ccc(NC(=O)c2cccnc2NCCc2ccccc2)cc1 | inactive: 6.96%
CN(c1ccccc1C(=O)O)S(=O)(=O)c1ccc2[nH]c(=O)oc2c1 | inactive: 7.98%
C/C(=N\NC(=O)C(=O)Nc1c(C)n(C)n(-c2ccccc2)c1=O)c1ccc(Cl)s1 | inactive: 11.1%
Cc1oc2ccc(OCc3ccc(Br)cc3)cc2c1C(=O)O | inactive: 8.18%
CC(C)[C@H](NC(=O)Nc1cccc(C(F)(F)F)c1)C(=O)O | inactive: -14.2%
O=C(O)c1ccc(Cl)c(S(=O)(=O)NC(Cc2ccccc2)C(=O)O)c1 (centres undefined) | inactive: -2.89%
Cc1ccc(/C=N/NC(=O)c2cccnc2)o1 | inactive: 7.38%
CC(=O)c1cccc(NC(=O)CCCN(C)S(=O)(=O)c2ccc(F)cc2)c1 | inactive: 0.19%
O=C(CN1CCCCCC1)N/N=C/c1ccc(Cl)c(Cl)c1 | inactive: -33.2%
CCOc1ccccc1C(=O)N(Cc1sccc1C)C1CCS(=O)(=O)C1 (centres undefined) | inactive: 9.13%
O=C1C(=O)N(CC2CCCO2)C(c2ccccc2[N+](=O)[O-])/C1=C(/O)c1ccccc1 (centres undefined) | inactive: 5.14%
O=C(Nn1cnnc1)c1ccccc1CCc1ccccc1 | inactive: 2.88%
Cc1ccc(C(=O)NC(=S)Nc2ccc(NC(=O)c3cccs3)cc2)cc1[N+](=O)[O-] | inactive: 17.5%
O=C(N/N=C/c1ccc(Br)o1)c1cccnc1 | inactive: 8.29%
Cc1ccc(S(=O)CCNC(=O)Cc2ccccc2)cc1 (centres undefined) | inactive: -5.35%
COc1cccc(NC(=S)N2CCN(Cc3ccccc3)CC2)c1 | inactive: 13.1%
CCCCn1c(N)c(N(CC)C(=O)COc2ccc(C#N)cc2)c(=O)[nH]c1=O | inactive: 12.8%
N#Cc1ccsc1NC(=O)COC(=O)CCS(=O)(=O)c1ccccc1 | inactive: -7.05%
CCCC(=O)Nc1nnc(SCC(=O)N2C(C)CCCC2C)s1 (centres undefined) | inactive: 13%
CCCSc1ncc(Cl)c(C(=O)Nc2sc3c(c2C(=O)OC)CCCC3)n1 | inactive: 17.2%
Cc1noc(C)c1-c1ccc(C(=O)NCCN2CCOCC2)c2occc12 | inactive: 4.72%
Cc1ccc([N+](=O)[O-])cc1N | inactive: -9.08%
Nc1cc[n+](CC(=O)Nc2ccccc2)cc1 | inactive: 3.86%
NC(=S)Nc1cccc(-c2n[nH]c(=S)o2)c1 | inactive: -17.1%
